Results are given in words; binding and its absence hold for the method and conditions named. In cells and extracts the contact can be indirect. Some entries that bind do so weakly or less than the wild type.
What was measured:
[1] = biological target: Filamin A (human (endogenous in primary HBE cells)) (UniProt P21333); experiment: co-IP; as a1, but cells exposed to VX-445 (3 μM) plus VX-661 (3 μM), or kept at low temperature (29°C), for 24 h before lysis; IP with rabbit anti-FLNA antibody, blot with anti-CFTR antibody 596
[2] = biological target: Filamin A (human (endogenous in primary HBE cells)) (UniProt P21333); experiment: condition: only cells without VX-445 plus VX-661 or low temperature; co-IP; lysates of CF HBE cells transduced with CFTR adenoviruses (50 MOI), no corrector treatment; lysis in 150 mM NaCl, 1 mM EDTA, 50 mM Tris-HCl pH 7.4, 0.5% Triton X-100; IP with rabbit anti-FLNA antibody and Protein G Sepharose at 4°C; blot with anti-CFTR antibody 596
[3] = biological target: Filamin A (human (endogenous in primary HBE cells)) (UniProt P21333); experiment: co-IP; lysates of CF HBE cells transduced with CFTR adenoviruses (50 MOI), no corrector treatment; lysis in 150 mM NaCl, 1 mM EDTA, 50 mM Tris-HCl pH 7.4, 0.5% Triton X-100; IP with rabbit anti-FLNA antibody and Protein G Sepharose at 4°C; blot with anti-CFTR antibody 596

The chains behind the UniProt entries cited, without tags or fusion partners. Where a name states a change or a piece, a line headed by the entry shows the natural chain unless it says otherwise. A line that says so, or that is headed by a name, gives the form on record, which may keep a tag or linker.
UniProt P21333: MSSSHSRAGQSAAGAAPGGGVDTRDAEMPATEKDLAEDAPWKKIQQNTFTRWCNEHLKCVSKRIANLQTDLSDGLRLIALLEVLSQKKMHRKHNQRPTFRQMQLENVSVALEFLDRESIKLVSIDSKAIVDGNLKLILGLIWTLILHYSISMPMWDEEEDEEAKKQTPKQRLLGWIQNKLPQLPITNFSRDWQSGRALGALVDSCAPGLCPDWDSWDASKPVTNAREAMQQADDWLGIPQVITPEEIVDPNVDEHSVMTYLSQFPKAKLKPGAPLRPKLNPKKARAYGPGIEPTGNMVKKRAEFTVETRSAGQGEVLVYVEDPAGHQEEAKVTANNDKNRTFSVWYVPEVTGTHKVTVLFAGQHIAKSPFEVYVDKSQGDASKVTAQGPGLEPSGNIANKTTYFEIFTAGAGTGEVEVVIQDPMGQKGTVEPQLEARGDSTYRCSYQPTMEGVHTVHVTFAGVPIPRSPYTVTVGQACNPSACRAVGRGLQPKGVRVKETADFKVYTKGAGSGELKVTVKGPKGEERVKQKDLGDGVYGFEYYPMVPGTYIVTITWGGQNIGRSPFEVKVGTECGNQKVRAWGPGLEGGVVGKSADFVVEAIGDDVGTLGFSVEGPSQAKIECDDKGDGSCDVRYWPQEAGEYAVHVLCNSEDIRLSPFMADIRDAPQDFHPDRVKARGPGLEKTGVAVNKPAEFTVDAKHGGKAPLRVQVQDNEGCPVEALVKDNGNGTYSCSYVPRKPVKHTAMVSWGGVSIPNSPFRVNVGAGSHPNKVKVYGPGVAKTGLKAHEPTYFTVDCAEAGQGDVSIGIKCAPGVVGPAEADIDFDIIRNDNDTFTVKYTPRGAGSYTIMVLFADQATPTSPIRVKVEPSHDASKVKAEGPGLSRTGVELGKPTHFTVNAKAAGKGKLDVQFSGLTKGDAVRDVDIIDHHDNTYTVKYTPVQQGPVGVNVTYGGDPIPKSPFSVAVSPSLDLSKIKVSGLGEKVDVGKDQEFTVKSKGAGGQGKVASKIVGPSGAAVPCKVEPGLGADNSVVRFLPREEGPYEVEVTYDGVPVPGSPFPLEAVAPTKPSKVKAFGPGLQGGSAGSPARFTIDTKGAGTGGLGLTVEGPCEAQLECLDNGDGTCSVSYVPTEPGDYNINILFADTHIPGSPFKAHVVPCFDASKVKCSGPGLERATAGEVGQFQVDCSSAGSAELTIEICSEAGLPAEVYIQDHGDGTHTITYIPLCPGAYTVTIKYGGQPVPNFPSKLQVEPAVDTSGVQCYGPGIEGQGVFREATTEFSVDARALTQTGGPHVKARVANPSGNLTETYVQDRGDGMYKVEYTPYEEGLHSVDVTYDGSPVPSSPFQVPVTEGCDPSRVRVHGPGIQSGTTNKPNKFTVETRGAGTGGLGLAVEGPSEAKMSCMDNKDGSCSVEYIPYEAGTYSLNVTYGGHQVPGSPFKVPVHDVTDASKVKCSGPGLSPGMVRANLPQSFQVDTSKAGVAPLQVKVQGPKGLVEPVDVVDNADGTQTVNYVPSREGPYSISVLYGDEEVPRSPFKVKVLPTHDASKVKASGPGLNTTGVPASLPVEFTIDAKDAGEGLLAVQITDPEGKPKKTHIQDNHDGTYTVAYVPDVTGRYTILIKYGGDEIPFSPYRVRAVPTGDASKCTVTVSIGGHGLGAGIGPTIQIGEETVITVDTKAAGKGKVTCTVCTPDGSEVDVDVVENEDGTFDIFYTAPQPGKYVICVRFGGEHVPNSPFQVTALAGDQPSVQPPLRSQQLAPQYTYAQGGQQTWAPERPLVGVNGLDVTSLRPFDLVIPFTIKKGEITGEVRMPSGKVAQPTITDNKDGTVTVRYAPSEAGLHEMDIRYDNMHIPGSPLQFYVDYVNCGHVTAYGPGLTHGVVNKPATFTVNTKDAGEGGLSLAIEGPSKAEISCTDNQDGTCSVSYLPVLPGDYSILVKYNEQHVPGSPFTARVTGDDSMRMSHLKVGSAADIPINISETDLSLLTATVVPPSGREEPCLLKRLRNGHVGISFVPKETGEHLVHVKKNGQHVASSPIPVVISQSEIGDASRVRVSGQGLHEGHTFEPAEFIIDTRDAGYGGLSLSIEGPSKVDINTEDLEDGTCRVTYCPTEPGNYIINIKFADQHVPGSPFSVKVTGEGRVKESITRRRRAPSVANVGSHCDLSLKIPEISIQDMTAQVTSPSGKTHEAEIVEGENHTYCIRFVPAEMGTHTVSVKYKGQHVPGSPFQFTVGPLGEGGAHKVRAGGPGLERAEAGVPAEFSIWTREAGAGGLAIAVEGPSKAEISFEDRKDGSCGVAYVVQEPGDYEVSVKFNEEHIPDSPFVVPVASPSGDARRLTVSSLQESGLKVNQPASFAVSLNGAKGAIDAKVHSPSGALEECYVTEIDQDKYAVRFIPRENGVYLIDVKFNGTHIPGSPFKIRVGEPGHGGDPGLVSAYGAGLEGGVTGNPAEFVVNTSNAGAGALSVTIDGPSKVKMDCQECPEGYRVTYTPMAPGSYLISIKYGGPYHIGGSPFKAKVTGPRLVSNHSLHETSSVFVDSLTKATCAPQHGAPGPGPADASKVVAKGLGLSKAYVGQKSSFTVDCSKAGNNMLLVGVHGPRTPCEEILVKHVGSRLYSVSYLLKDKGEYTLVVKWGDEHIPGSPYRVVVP
UniProt P13569: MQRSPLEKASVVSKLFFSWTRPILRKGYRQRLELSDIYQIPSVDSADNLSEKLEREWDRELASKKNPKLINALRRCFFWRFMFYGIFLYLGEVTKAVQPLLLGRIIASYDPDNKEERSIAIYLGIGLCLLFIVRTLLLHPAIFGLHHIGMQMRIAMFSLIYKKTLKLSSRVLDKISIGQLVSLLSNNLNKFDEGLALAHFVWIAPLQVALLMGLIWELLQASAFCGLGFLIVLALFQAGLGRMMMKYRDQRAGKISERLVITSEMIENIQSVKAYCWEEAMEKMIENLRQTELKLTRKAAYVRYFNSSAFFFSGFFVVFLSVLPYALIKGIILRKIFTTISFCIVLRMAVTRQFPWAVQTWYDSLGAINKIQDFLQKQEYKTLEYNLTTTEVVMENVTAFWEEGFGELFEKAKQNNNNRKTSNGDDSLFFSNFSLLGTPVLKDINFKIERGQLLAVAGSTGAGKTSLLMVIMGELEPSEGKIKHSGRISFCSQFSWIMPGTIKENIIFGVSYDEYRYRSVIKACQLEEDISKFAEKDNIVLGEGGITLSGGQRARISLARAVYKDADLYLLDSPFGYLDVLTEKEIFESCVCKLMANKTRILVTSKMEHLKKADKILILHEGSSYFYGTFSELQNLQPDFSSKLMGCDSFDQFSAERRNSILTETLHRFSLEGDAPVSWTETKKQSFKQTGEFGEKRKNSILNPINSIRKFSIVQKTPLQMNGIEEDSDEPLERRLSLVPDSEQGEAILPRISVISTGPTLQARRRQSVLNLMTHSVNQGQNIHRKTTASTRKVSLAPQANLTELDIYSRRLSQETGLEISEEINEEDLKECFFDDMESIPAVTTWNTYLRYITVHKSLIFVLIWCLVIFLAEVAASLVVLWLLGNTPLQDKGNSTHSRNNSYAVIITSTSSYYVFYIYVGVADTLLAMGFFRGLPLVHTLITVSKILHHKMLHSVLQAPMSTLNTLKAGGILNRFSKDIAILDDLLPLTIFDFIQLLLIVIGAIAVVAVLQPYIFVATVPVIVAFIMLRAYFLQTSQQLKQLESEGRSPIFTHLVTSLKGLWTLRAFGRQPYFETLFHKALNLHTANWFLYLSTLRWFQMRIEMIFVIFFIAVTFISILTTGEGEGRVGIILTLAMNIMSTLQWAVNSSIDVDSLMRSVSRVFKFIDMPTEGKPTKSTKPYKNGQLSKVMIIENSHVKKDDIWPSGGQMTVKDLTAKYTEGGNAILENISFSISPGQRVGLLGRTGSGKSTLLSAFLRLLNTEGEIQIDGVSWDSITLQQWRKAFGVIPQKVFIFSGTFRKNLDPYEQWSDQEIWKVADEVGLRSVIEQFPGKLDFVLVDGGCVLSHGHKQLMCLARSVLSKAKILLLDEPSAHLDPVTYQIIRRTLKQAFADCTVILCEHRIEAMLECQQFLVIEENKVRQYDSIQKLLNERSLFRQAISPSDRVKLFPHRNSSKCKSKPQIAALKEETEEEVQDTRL
F508del-CFTR (EGFP–F508del-CFTR) (P13569, form named): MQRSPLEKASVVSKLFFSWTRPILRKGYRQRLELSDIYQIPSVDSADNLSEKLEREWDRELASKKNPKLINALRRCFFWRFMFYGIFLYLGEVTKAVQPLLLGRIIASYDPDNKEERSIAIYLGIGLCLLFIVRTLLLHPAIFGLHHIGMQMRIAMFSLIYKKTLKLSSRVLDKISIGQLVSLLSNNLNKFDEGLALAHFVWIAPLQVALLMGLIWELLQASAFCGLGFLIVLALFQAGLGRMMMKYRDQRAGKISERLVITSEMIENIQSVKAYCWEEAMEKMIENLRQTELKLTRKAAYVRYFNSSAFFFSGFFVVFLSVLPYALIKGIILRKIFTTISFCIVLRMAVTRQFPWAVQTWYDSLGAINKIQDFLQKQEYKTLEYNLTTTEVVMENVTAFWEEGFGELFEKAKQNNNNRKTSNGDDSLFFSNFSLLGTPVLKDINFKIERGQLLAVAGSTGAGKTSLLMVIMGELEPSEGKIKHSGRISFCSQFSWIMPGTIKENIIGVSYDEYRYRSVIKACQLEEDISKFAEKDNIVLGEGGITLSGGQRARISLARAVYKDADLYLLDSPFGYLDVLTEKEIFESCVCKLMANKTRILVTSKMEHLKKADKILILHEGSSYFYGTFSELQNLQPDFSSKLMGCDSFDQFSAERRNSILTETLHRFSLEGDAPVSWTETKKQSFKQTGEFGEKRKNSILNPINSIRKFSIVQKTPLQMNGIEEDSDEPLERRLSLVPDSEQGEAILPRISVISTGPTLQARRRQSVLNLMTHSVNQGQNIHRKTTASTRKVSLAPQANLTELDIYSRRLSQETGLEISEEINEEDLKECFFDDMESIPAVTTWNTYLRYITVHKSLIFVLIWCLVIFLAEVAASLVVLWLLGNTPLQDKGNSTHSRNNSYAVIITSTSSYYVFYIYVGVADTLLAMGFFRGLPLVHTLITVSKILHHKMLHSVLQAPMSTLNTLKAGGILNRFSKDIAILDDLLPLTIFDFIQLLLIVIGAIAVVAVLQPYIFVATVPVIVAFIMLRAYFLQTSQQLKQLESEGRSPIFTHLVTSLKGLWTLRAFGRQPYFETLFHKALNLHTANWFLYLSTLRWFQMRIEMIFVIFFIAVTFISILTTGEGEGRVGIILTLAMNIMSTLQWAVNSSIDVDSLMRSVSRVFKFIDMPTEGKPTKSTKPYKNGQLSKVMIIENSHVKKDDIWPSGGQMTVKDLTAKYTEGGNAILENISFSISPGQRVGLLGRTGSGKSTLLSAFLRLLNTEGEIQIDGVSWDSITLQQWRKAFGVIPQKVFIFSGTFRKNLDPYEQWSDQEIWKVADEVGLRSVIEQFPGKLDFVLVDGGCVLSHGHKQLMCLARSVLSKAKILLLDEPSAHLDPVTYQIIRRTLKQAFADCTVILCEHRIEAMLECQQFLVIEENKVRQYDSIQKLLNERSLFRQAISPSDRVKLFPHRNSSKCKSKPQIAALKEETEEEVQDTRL

Row | Substance | binding [1] | binding [2] | binding [3]
1 | F508del-CFTR (EGFP–F508del-CFTR) (from UniProt P13569 1-1480) | binds | no binding | –
2 | S13F-CFTR (EGFP–S13F-CFTR) (from UniProt P13569 1-1480) | binds | no binding | –
3 | wild-type cystic fibrosis transmembrane conductance regulator (EGFP–wt-CFTR) (from UniProt P13569 1-1480) | – | – | binds

— PMC8976878
